Laboratory results: PubChem BioAssay AID1508642 (National Center for Advancing Translational Sciences (NCATS), 2021)
Hit rate of the full screen: of about 43,000 compounds, about 200 (0.47%) were called active. Inconclusive results (about 12%) are left out. Calls follow the shape of the dose curve; as a rule, active = well fitted cell-killing curve with a large enough effect; inconclusive = small, poorly fitted or top-dose-only effect, or effect the other way; inactive = flat fitted curve, though single readings scatter. The list shows a part of the results.

Test: Cell viability qHTS assay in S16 Pmp22-F2sN cells; also: nearly all actives have a fitted effect of over 65% in size
Conditions: S16 Pmp22-F2sN Schwann cells (luciferase reporters placed in the Pmp22 gene) viability, CellTiter-Glo, 24 h; series mostly up to 57.5 µM; activity change, negative = cytotoxicity: at the top concentration
How it was run: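 Luminescence from CellTiter-Glo, read by CCD camera after a 15 min room-temperature incubation, served as the viability signal. Reporter Schwann cells (S16 Pmp22-F2sN) had been treated with pin-transferred compounds for 24 h at 37C.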
% is scaled to controls: 0 for no effect and ±100 for the full control effect.

Row | SMILES | activity change, negative = cytotoxicity
1 | CCOC(=O)c1c(NC(=O)COc2ccc(Cl)cc2Cl)sc2c1CCCCC2 | inactive: 9.51%
2 | CN(C)c1ccc(CNC(=O)Cn2c(-c3cccs3)cc3cc(Cl)ccc32)cc1 | inactive: 3.61%
3 | CC(Oc1ccccc1)C(=O)Nc1c(C(=O)Nc2cccc(F)c2)oc2ccccc12 (stereo unspecified) | inactive: 4.24%
4 | COc1cc2c(cc1NC(=O)c1ccccc1C)n(C)c(=O)n2C | inactive: 12.6%
5 | CCc1ccc(CNC(=O)c2ccc(-c3nc(CSc4ccc(C)cc4)c(C)o3)cc2)cc1 | inactive: 5.38%
6 | O=C(CSc1oc(-c2ccc(F)cc2)nc1S(=O)(=O)c1ccccc1)NC1CCCCC1 | inactive: -7.41%
7 | CCSc1nnc(NC(=O)c2cc(=O)c3cc(C)ccc3o2)s1 | inactive: 0.759%
8 | COc1cc(C(=O)NCCc2sc(-c3cccc(F)c3)nc2C)cc(OC)c1OC | inactive: 5.58%
9 | O=C(Nc1ccccc1Br)c1cc(CN2CCCC2)on1 | inactive: -1.72%
10 | O=C(CCN1C(=O)c2ccccc2Sc2ncccc21)Nc1ccc(F)cc1 | inactive: 7.22%
11 | CC(CCc1ccccc1)NC(=O)Cn1ncc2c3ccccc3n(Cc3ccccc3)c2c1=O (stereo unspecified) | inactive: 15.9%
12 | COc1ccc(-c2nnc(SCC(=O)Nc3c(C)cccc3C)nc2-c2ccc(OC)cc2)cc1 | inactive: -15.1%
13 | CC(C)CNc1ncnc2onc(-c3ccc(Cl)cc3)c12 | inactive: -9.56%
14 | CCOC(=O)c1ccc(NC(=O)c2oc3c(c2C)-c2nn(Cc4ccccc4Cl)cc2CC3)cc1 | inactive: -3.89%
15 | COc1cccc(CNC(=O)CCn2cnc3ccccc3c2=O)c1 | inactive: -0.885%
16 | CCCCc1ccc(NC(=O)CSc2nc(=O)[nH]c3c2CCCC3)cc1 | inactive: 14.1%
17 | Cc1cc2oc(C(=O)N(Cc3ccc(N(C)C)cc3)Cc3ccco3)c(C)c2cc1Cl | inactive: 1.05%
18 | Cc1ccccc1Nc1nc(N)c(C(=O)c2ccccc2Cl)s1 | inactive: 6.06%
19 | CCOc1ccc(NC(=O)c2cnc3sc(N4CCOCC4)nn3c2=O)cc1 | inactive: 12.9%
20 | COc1cccc(N2CC(NC(=O)COc3ccccc3F)CC2=O)c1 (stereo unspecified) | inactive: -5.25%
21 | COC(=O)CCN(c1ccccc1)C(CNS(=O)(=O)c1ccccc1)c1ccccc1 (stereo unspecified) | inactive: 18.8%

Row | SMILES | activity change, negative = cytotoxicity
22 | CCOc1ccc(CCNC(=O)Cn2c(-c3cccs3)cc3ccccc32)cc1OCC | inactive: -8.46%
23 | Cc1ccc(C)c(NC(=O)CSc2ccc3nc(-c4ccccc4)cn3n2)c1 | inactive: 1.58%
24 | COc1ccc(Nc2oc(/C=C/c3ccccc3OC)nc2C#N)cc1 | inactive: 1.37%
25 | O=C(Nc1cccc(C(=O)OCc2cc(=O)n3nc(C4CC4)sc3n2)c1)c1cccc(Cl)c1 | inactive: 3.86%
26 | O=C(CSc1nc2c([nH]c3ccccc32)c(=O)n1-c1ccccc1F)Nc1cccc(C(F)(F)F)c1 | inactive: -15.8%
27 | O=C(CCCN1C(=O)c2cccnc2Oc2ccc(Cl)cc21)NCc1ccc(F)cc1 | inactive: 5.79%
28 | CN1CCN(CCNC(=O)c2cnn(-c3ccc(F)cc3)c2C2CCN(C(=O)OC(C)(C)C)CC2)CC1 | inactive: 4.39%
29 | Cc1ccc(N2CC(NC(=O)c3cccs3)CC2=O)cc1 (stereo unspecified) | inactive: 7.17%
30 | CCOc1ccc(-n2cc(-c3ccccc3)c3c(NC4CCCC4)ncnc32)cc1 | inactive: -1.62%
31 | O=C(CN1C(=O)C2(SCC(=O)N2c2ccc(F)cc2)c2ccccc21)NC1CCCCC1 (stereo unspecified) | inactive: 5.69%
32 | Cc1ccc2c(c1)C(=O)OC(C(=O)Nc1ccccc1C(=O)O)C2 (stereo unspecified) | inactive: -7.94%
33 | CC1=C(c2ccc(C)c(C)c2)S(=O)(=O)N(Cc2ccc(C(=O)Nc3cc(F)ccc3F)cc2)C1=O | inactive: -2.8%
34 | Cc1ccc(N2C(=O)CSC23C(=O)N(CC(=O)NCc2ccccc2)c2ccccc23)cc1 (stereo unspecified) | inactive: -17%
35 | COc1ccc(NC(=O)c2cc(-c3ccccc3F)no2)cc1 | inactive: -1.81%
36 | Cc1cccc(Nc2sc(C(=O)c3ccc(Cl)cc3)c(N)c2C(N)=O)c1 | inactive: 0.867%
37 | COc1cccc(CNC(=O)Cn2nc(C)c3sc4ccccc4c3c2=O)c1OC | inactive: 6.17%
38 | Cc1nn2c(C)c(C(=O)N3CCN(c4ccc(Cl)cc4)CC3)cnc2c1-c1ccc(F)cc1 | inactive: 9.03%
39 | COc1cc2c(cc1OC)n(CC(=O)c1ccc(C)cc1C)c(=O)n1nc(CCn3nc(C)cc3C)nc21 | inactive: -1.17%
40 | Cc1ccc2nc(NC(=O)c3ccc(S(=O)(=O)N4CCC(C)CC4)cc3)sc2c1 | inactive: 1.62%
41 | Cc1ccccc1CN1C(=O)c2ccccc2Sc2ccc(C(=O)NCCc3ccccc3)cc21 | inactive: -24.7%
42 | Cc1cccc(C)c1OCC(=O)N(Cc1ccco1)Cc1ccco1 | inactive: -12.8%

Row | SMILES | activity change, negative = cytotoxicity
43 | C=Cc1ccc(Cn2c(C)c(CNCCc3ccc(OCC)cc3)c(C(=O)O)c2C)cc1 | inactive: 6.88%
44 | CCn1cc(C(=O)N2CCN(c3cccc(Cl)c3)CC2)c(=O)c2cc(S(=O)(=O)N3CCC(C)CC3)ccc21 | inactive: 0.844%
45 | Cc1ccc2c(=O)cc(CSc3ncn[nH]3)[nH]c2c1C | inactive: -2.57%
46 | CCOC(=O)c1c(C)[nH]c(C)c1S(=O)(=O)N1CCC(C(=O)N2CCN(c3ccc(F)cc3)CC2)CC1 | inactive: -2.05%
47 | COc1ccc(N2CCN(C(=O)C(C)n3nc(C)c4sc5ccccc5c4c3=O)CC2)cc1 (stereo unspecified) | inactive: 11.7%
48 | CCOC(=O)c1c(NC(=O)C2c3ccccc3Oc3ccccc32)sc2c1CCC(CC)C2 (stereo unspecified) | inactive: -1.1%
49 | CCOC(=O)C(CC)N1CCN(Cc2ccc(F)cc2)C(=O)C1=O (stereo unspecified) | inactive: 11.4%
50 | CCn1nc(C)c2c(-c3ccccc3)cc(=O)n(C(C)C(=O)Nc3cc(C)ccc3C)c21 (stereo unspecified) | inactive: 4.7%
51 | O=C(Nc1nc2c(F)cccc2s1)c1ccc(S(=O)(=O)N2CCCc3ccccc32)cc1 | inactive: 1.8%
52 | COc1ccc(-c2ccc(NS(=O)(=O)c3cc(C)c(C)cc3C)cc2)nn1 | inactive: 6.86%
53 | CCS(=O)(=O)NCC(c1ccco1)N1CCN(c2ccc(F)cc2)CC1 (stereo unspecified) | inactive: 9.25%
54 | CC(=O)C1=C(c2cccc([N+](=O)[O-])c2)N(C(C)=O)n2c(nnc2-c2ccc(C)cc2)S1 | inactive: 19.7%
55 | CCOC(=O)c1c(S(=O)(=O)N2CCCC(C(=O)N3CCN(c4cc(C)ccc4C)CC3)C2)c(C)n(C)c1C (stereo unspecified) | inactive: 3.02%
56 | CCc1ccc(NC(=O)Cn2c(=O)n(CCCC(=O)NCc3ccc4c(c3)OCO4)c(=O)c3ccccc32)cc1 | inactive: 17.1%
57 | O=S(=O)(c1ccc(Cl)cc1)c1nc(-c2cccs2)oc1SCc1ccccc1F | inactive: -8.81%
58 | COc1ccc(-c2nnc(SCCOc3ccccc3C)o2)cc1OC | inactive: 1.91%
59 | Cc1ccc(OCC(=O)Nc2nonc2-c2ccc(Br)cc2)cc1C | inactive: 4.73%
60 | Cc1cc(C)cc(OCCSc2nc3ccc(NC(=O)COc4ccccc4)cc3s2)c1 | inactive: 12.3%
61 | CC(=O)N1CCCc2cc(S(=O)(=O)N3CCCC(C(=O)NC(C)C)C3)ccc21 (stereo unspecified) | inactive: -4.78%
